# Measured values from PubChem BioAssay AID757 (NMMLSC, 2007).
# Hit rate of the full screen: of about 190,000 compounds, about 520 (0.27%) were called active. Inconclusive results, whose numbers are uncertain, are shown with a selection of clear calls.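 Rule for the calls: active = GTP binding activity at least 20 points away from the 100% control level, either lower or higher; inconclusive = compound flagged as likely green fluorescent, judged across all proteins; inactive = the rest.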
# Molecular target: Ras-related C3 botulinum toxin substrate 1 (Homo sapiens) (UniProt P63000)
# Test: wildtype Rac1 GTP binding modulators, primary screen, biochemical, GST-Rac1 beads, flow cytometry, multiplex (AID 757)
# Details: fluorescent GTP binding, at 10 µM, actives lie on both sides, 0 = cold GTP competed, 100 = untreated
row,SMILES,GTP binding activity (% of control)
1,Cc1cccc(-n2c(SCc3ccc(C#N)cc3)nnc2-c2c[nH]c3ccccc23)c1,inconclusive: 100%
2,CC(/C=C1\SC(=S)N(NC(=O)c2ccccc2C)C1=O)=C\c1ccccc1,inconclusive: 85%
3,N#CC(C#N)=C(Nc1ccc(F)cc1)SCc1cccc(Br)c1,active: 134% [activator]
4,Cc1cccc2cc(CN(CC3CCCO3)C(=O)c3ccco3)c3nnnn3c12 (stereo not drawn),inconclusive: 100%
5,CSC1=NC(=O)/C(=C\c2cccc3ccccc23)S1,inconclusive: 93%
6,COc1ccc(OC)c(NC(=O)CCc2c[nH]c3ccccc23)c1,inconclusive: 96%
7,O=C(NCc1ccccc1)c1noc2c1CCCCC2,inconclusive: 105%
8,CCOc1cccc(/C(O)=C2/C(=O)C(=O)N(CCOC)C2c2ccncc2)c1 (stereo not drawn),inconclusive: 447%
9,CC(C)CCN(C(=O)Cc1ccc(Cl)c(Cl)c1)c1c(N)n(Cc2ccccc2)c(=O)[nH]c1=O,inconclusive: 98%
10,O=C(CSc1nc2ccccc2c(=O)n1CCCN1CCOCC1)c1c[nH]c2ccccc12,inconclusive: 97%
11,O=C(COc1ccc(S(=O)(=O)N2CCCC2)cc1)Nc1ccc2c(c1)OCCO2,inactive: 102%
12,CCOC(=O)Cc1ncccc1C(=O)Nc1ccc(OC)cc1,inactive: 100%
13,Cc1nn(C)cc1/C=C(/C#N)C(N)=O,inactive: 105%
14,Cc1ccc(CN2CCN(Cc3ccc(C)s3)CC2CCO)cc1 (stereo not drawn),inactive: 101%
15,Cc1ccc(-n2c3nc(=O)[nH]c(=O)c-3cc3cc([N+](=O)[O-])ccc32)cc1,active: 77%
16,CN(C)CCN(C(=O)c1ccccc1Cl)c1nc2c(Cl)cccc2s1,inactive: 106%
17,CNc1ccccc(-c2ccc3ccccc3n2)c1=O,inactive: 105%
18,COc1ccccc1NC(=O)Cn1cc(C#N)c2ccccc21,inconclusive: 100%
19,O=C(O)c1cc(N2C(=O)C3C4C=CC(C4)C3C2=O)ccc1NCc1cccnc1 (stereo not drawn),inconclusive: 104%
20,COc1ccc(OCc2nc3c4cc(OC)c(OC)cc4nc(=S)n3[nH]2)cc1,active: 77%

row,SMILES,GTP binding activity (% of control)
1,NS(=O)(=O)c1ccc(Nc2nc(-c3ccc(O)cc3O)cs2)cc1,active: 78%
2,COc1ccc(CNC(=O)C2CC(=O)N(c3ccc(OCC(=O)N4C(C)CCCC4C)cc3)C2)cc1 (stereo not drawn),inconclusive: 162%
3,Cc1cccc(NC(=O)CN2C(=O)N/C(=C/c3cc(C)n(C)c3C)C2=O)c1,inconclusive: 95%
4,Cc1cc(C)nc(/N=C(\N)Nc2ccc(S(=O)(=O)Nc3nccc(C)n3)cc2)n1,inactive: 91%
5,O=C(NC(=S)Nc1ccc(N2CCOCC2)c(Cl)c1)c1cccs1,inconclusive: 100%
6,O=C(NC(=S)NCC1CCCO1)c1cccc([N+](=O)[O-])c1 (stereo not drawn),inactive: 105%
7,O=C(O)c1ccccc1C(=O)Nc1ccc(Br)c2cccnc12,inconclusive: 93%
8,O=C(C1CCCN1S(=O)(=O)c1ccc(Br)cc1)N1CCOCC1 (stereo not drawn),inactive: 97%
9,O=C(Cn1c2ccc(F)cc2c2nc3n(c(=O)c21)CCS3)Nc1ccc(Cl)cc1F,inconclusive: 97%
10,CCN(CC)P(=O)(Nc1ccccc1Br)c1ccc(N(C)C)cc1NC(=O)c1ccco1 (stereo not drawn),inconclusive: 89%
11,O=C(COC(=O)C1CCN(S(=O)(=O)c2ccccc2C(F)(F)F)CC1)NCc1ccc(F)cc1,inactive: 104%
12,Cc1ccc(C(=O)NCCSC2CCCCC2)cc1S(=O)(=O)Nc1ccccc1,inconclusive: 106%
13,Cc1cc(/C=C2\SC(=S)N(Cc3ccco3)C2=O)c(C)n1-c1cccnc1,inconclusive: 139%
14,O=C(/C=C\c1cn(-c2ccccc2)nc1-c1cccs1)N1CCOCC1,inactive: 106%
15,O=C(CSc1nc2ccccc2c(=O)n1CCCO)NCc1ccccc1,inconclusive: 108%
16,Cc1nn(C)c(C)c1N=Cc1c(O)ccc2ccccc12,inconclusive: 100%
17,CCOC(=O)c1sc(Nc2nc3cc4c(cc3s2)OCO4)cc1C,inconclusive: 217%
18,COc1cc(NC(=O)c2ccc(COc3ccccc3Br)o2)cc(OC)c1OC,inconclusive: 102%
19,Cn1c(N/N=C/c2ccccc2)nc2sc3c(c2c1=O)CCC3,inconclusive: 82%
20,Nc1nc(CSC(=S)N2CCCCC2)nc(Nc2ccccc2)n1,inconclusive: 92%

row,SMILES,GTP binding activity (% of control)
1,CCCNC(=O)COc1ncnc2sc(C)c(C)c12,inconclusive: 101%
2,Cc1nc(N)nc(Nc2ccc(Cl)cc2)c1Br,inconclusive: 104%
3,CCN(CC)CCn1c(NCc2ccc3c(c2)OCO3)nc2ccccc21,inactive: 100%
4,O=C1OC(Cc2ccccn2)C(O)=C1C1=NCCCN1 (stereo not drawn),inconclusive: 106%
5,Cc1cc(N/N=C/c2ccc(O)cc2O)nc(-c2ccccc2O)n1,active: 71%
6,O=C(Nc1ccc2nc(-c3cccs3)c(-c3cccs3)nc2c1)N1CCOCC1,inconclusive: 91%
7,COc1ccc(NC(=S)N2CCCN(Cc3cc(C)ccc3C)C2)cc1,inactive: 103%
8,COc1cccc(/C=N/n2cnnc2)c1OCc1ccccc1,inconclusive: 105%
9,CCCn1nc2cc(C(=O)N(CC)c3ccc(OC)cc3)ccc2c1OCC,inconclusive: 103%
10,COc1cc(CCNc2ccc3nnc(-c4ccccc4)n3n2)cc(OC)c1OC,active: 73%
11,O=C(CN1C(=O)c2ccccc2S1(=O)=O)N1CCN(c2ccc(F)cc2)CC1,inconclusive: 109%
12,CC1Cc2ccccc2N1C(=O)CN1C(=O)CN(C)C(=O)c2ccccc21 (stereo not drawn),inconclusive: 104%
13,Cc1ccc(NC(=O)Nc2cccc(Cl)c2)c(C(=O)O)c1,inconclusive: 91%
14,COc1cc2[nH]c(=O)n(C3CCCCC3)c(=O)c2cc1OC,inactive: 106%
15,CCC(=O)Nc1ccc2c(c1)OCCO2,inconclusive: 103%
16,Cn1c(=O)c2cc(S(=O)(=O)Nc3cc(C(=O)O)cc(C(=O)O)c3)ccc2n(C)c1=O,inconclusive: 90%
17,O=C(CNC(=O)c1cc(=O)[nH]c2ccccc12)Nc1ccc(F)c(F)c1,inactive: 97%
18,Cc1ccc(C(=O)Nc2ccccc2C(=O)O)cc1S(=O)(=O)NCc1ccccc1,inconclusive: 92%
